# The supplement of paper PMC3724861
# This is one part of the list.
# System: T1, Caupolican (Caup) homeodomain DNA-binding domain
# T1 sequence: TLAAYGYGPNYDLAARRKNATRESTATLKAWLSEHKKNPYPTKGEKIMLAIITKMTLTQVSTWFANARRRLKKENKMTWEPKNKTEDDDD
# Experiment: PBM E-score (8-mer, recovered from the published 9-mer minima) (E-score (dimensionless, -0.5 to 0.5)); Drosophila protein; higher = stronger relative binding preference, active = 0.31 or more
# Procedure, shortened: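 Caup's homeodomain DNA-binding domain (residues 214-303) was produced by in vitro transcription and translation and applied at 100 nM to custom-designed protein binding microarrays. Each value is an enrichment score giving relative binding preference for a short DNA word; higher means stronger. Published 9-mer scores were the minimum of their two constituent 8-mer scores, and the 8-mer values were recovered from those minima. A cutoff of 0.31 marks candidate binding sequences.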
row,Sequence,PBM E-score
1,CCCGGGGA,inactive: -0.26
2,ATTGCTGA,≥ 0.0762
3,GATAGAAC,inactive: 0.0699
4,AGATCTTC,inactive: -0.0139
5,ATCCGGAC,inactive: -0.0663
6,AATATCAA,inactive: 0.116
7,AGCTTGGA,inactive: -0.156
8,ACAGGTCC,inactive: 0.0377
9,TAACACAA,active: 0.319
10,AGACAAGA,inactive: 0.256
11,CGGTAGAC,inactive: 0.0049
12,AACGTCCT,≥ 0.0128
13,AATTGCGA,inactive: 0.0454
14,GAACACTC,inactive: 0.087
15,CTTTCGCC,inactive: -0.142
16,ACAACGCT,inactive: 0.0779
17,AGTAGGTA,inactive: 0.121
18,GCTGCCGA,inactive: -0.282
19,CCGCCTAA,inactive: -0.13
20,GTACTCTA,inactive: 0.131
21,TCCTTCGA,inactive: -0.134
22,ATAAGGTA,inactive: 0.0661
23,GAAAGTTC,inactive: -0.11
24,GATCGAAA,inactive: 0.00179
25,AAGAGTTC,inactive: -0.104

row,Sequence,PBM E-score
1,GAAGATTC,inactive: -0.0356
2,CGTCTAAA,inactive: -0.0517
3,CCGGCATA,inactive: -0.16
4,CTGAGTAC,inactive: 0.00015
5,GCTCGGCA,inactive: -0.0697
6,GGTGCGAC,inactive: -0.129
7,CAATCTAC,inactive: 0.0389
8,GCTCAATA,inactive: 0.0388
9,CCAGATAC,inactive: -0.0148
10,ATAAATAG,inactive: 0.108
11,CTGCAGAC,inactive: -0.0249
12,GCATTATA,inactive: 0.0926
13,AGGCCTAG,inactive: -0.139
14,AACCCTAT,inactive: 0.0597
15,AGTTCAAA,inactive: 0.0225
16,CAGAATAA,inactive: 0.0835
17,GGAATGAA,inactive: 0.00414
18,AAGTACAT,active: 0.402
19,TCAGTAGA,inactive: 0.00032
20,AAGTTCGC,inactive: -0.11
21,ACTGCCCC,inactive: -0.225
22,CTAGGAAG,inactive: 0.0196
23,TCCTGTCA,inactive: 0.199
24,AATTCCCC,inactive: -0.105
25,CACCCGTG,inactive: -0.0729

row,Sequence,PBM E-score
1,CGTGGTTC,inactive: -0.0425
2,GTCTATTA,inactive: 0.0665
3,CTTTAGAC,inactive: 0.0237
4,ACTCGCAG,inactive: -0.0895
5,GAACTGTC,inactive: 0.0387
6,TTATAAAA,inactive: 0.0405
7,GAGAGGAC,inactive: -0.058
8,CCTCAGCA,inactive: -0.0796
9,CGAACTCG,inactive: -0.0126
10,AGGCGATG,inactive: -0.0742
11,CCTTAGAG,inactive: -0.184
12,CCGTCGTA,inactive: 0.0177
13,CACTTGGC,inactive: -0.0642
14,CCGTAATC,inactive: 0.0401
15,AACTCCCC,inactive: -0.132
16,TCTACTCA,inactive: 0.0258
17,CCTATTCA,inactive: -0.00252
18,ACGAGATA,inactive: 0.127
19,GAAAATCC,inactive: -0.00172
20,AAGACCCT,inactive: -0.077
21,AAGGACCC,inactive: -0.181
22,GCGCACGA,inactive: -0.107
23,GGATATCA,inactive: 0.0642
24,GTATGGAC,inactive: 0.0661
25,CAGAGGCC,inactive: -0.195

row,Sequence,PBM E-score
1,CACTGCGG,inactive: -0.058
2,TCTCCACA,inactive: -0.0944
3,AACAATGC,inactive: 0.265
4,ATTGTTGC,inactive: 0.224
5,ACTTCAAT,inactive: 0.0416
6,AGTCCAAA,inactive: 0.0583
7,CCTTTTCA,≥ 0.0749
8,AAGCGCCA,inactive: -0.167
9,ATTCCCTA,≥ 0.0498
10,CACCCGAC,inactive: -0.0564
11,CTGGCGTC,inactive: -0.194
12,ACAGTTTC,inactive: 0.0345
13,TACCAAGA,inactive: 0.0618
14,ATGTCGGC,inactive: 0.176
15,AACTGCCC,inactive: -0.0495
16,GCAGTTGA,inactive: -0.0151
17,CCCCAGCA,inactive: -0.169
18,AATAGTCT,inactive: 0.0735
19,TCGCAGAA,inactive: -0.101
20,AGGCCACT,inactive: -0.16
21,CCACAGGA,inactive: -0.0146
22,AAGAGCCC,inactive: -0.231
23,TACACCAA,inactive: 0.184
24,CCAAAACG,inactive: -0.0574
25,AGATGTCA,inactive: 0.279

row,Sequence,PBM E-score
1,ACGTACAC,active: 0.333
2,TATTATAA,inactive: 0.204
3,AGCCTCGG,inactive: -0.191
4,AAAGGGCT,inactive: -0.155
5,ACGCGCGT,inactive: -0.0789
6,GCCCCGAC,inactive: -0.204
7,CGTACACC,inactive: 0.205
8,GGCTAAGA,inactive: -0.118
9,AGCGCCGG,inactive: -0.275
10,AACCAGTT,≥ 0.156
11,AGACATTG,inactive: 0.126
12,ACGGAGTA,inactive: -0.0665
13,TACTGAAA,inactive: 0.017
14,GGTGATCA,inactive: 0.0743
15,CAGGCTCA,inactive: -0.0139
16,AAGCTCCC,inactive: -0.184
17,GGTTATGA,inactive: 0.117
18,CTCAGACA,inactive: 0.0892
19,AATCATTG,inactive: 0.153
20,CCGACCTC,inactive: -0.11
21,TGTGGGAA,inactive: -0.00309
22,ATACGCAC,inactive: -0.0271
23,ATCGTCCA,inactive: -0.0793
24,GGCGTCGA,inactive: -0.144
25,AGCCTGAT,inactive: -0.0388

row,Sequence,PBM E-score
1,AAGAACTG,inactive: -0.0508
2,ACTAATGC,inactive: -0.0197
3,ACGCCGTC,inactive: -0.037
4,GAATCTCA,inactive: 0.0164
5,GAAGGTAA,inactive: 0.0165
6,CTCAGATC,inactive: -0.0165
7,GGATTTAC,inactive: 0.0403
8,CCCCACGG,inactive: -0.229
9,ATATCCTA,≥ 0.148
10,ACGTGCGG,inactive: -0.0708
11,CTCTTCTA,inactive: -0.00512
12,CACTATAG,inactive: 0.0938
13,GAGAAGGA,inactive: -0.104
14,CGGTCATC,inactive: -0.0235
15,AGCCACTA,inactive: -0.0387
16,CACATTAC,inactive: 0.141
17,AAAATGGG,inactive: -0.0394
18,AGCTCGGC,inactive: -0.192
19,AGCTACTC,inactive: 0.0368
20,GCTACATA,inactive: 0.248
21,CCACGACC,inactive: -0.0557
22,ATAAATAC,inactive: 0.237
23,GTAAAGCA,inactive: 0.156
24,CCGGGCCA,inactive: -0.362
25,CTGAGTGC,inactive: -0.148

row,Sequence,PBM E-score
1,CTTGGTTA,inactive: 0.0385
2,CTACTAAA,inactive: -0.0126
3,GACCCGTA,inactive: 0.0321
4,AGATCTAC,inactive: 0.0544
5,ATAGATGC,inactive: -0.0165
6,CAGTCGGA,inactive: -0.0896
7,CGAAACGA,inactive: -0.02
8,AAGTTTTG,inactive: 0.0307
9,GCGGGCGA,inactive: -0.23
10,CGCTACAA,inactive: 0.199
11,ACCTTATG,inactive: 0.0187
12,GTCAATAA,inactive: 0.21
13,TATGATGA,inactive: 0.0995
14,CAACTCTA,inactive: -0.0633
15,CGGAGATC,inactive: -0.0891
16,AAGCGATA,inactive: -0.0558
17,CGGACGGC,inactive: -0.255
18,ATGTGGCA,inactive: -0.0135
19,AGTTCGCC,inactive: -0.107
20,AATGCTAG,inactive: -0.0187
21,AAGTAATG,inactive: 0.0922
22,CGATTGCG,inactive: -0.0701
23,CCTTTACC,inactive: -0.0506
24,ACTTGATA,inactive: 0.177
25,CTGCGCCC,inactive: -0.292

row,Sequence,PBM E-score
1,GTTAGTAA,inactive: 0.177
2,AAGACTTG,inactive: 0.119
3,AGTTGCAG,inactive: -0.069
4,ATGTAGTG,inactive: 0.27
5,CTCACAGA,inactive: -0.0722
6,GTTATAAA,inactive: 0.197
7,ACAAAACA,inactive: 0.266
8,CCGGACGC,inactive: -0.208
9,AGCCATAG,inactive: 0.00654
10,AGTGGTGA,inactive: -0.0667
11,ATGCATAC,inactive: 0.104
12,CTTCCCCC,inactive: -0.308
13,ACTCGGCC,inactive: -0.0882
14,AACTCCCG,inactive: -0.127
15,TTACTCAA,inactive: 0.0597
16,CATGCCAA,inactive: 0.112
17,ATGAAAGA,inactive: 0.0472
18,CCACGAAA,inactive: -0.0708
19,CCCTCCCG,inactive: -0.29
20,GAGCCATC,inactive: -0.148
21,AAAGCGCA,inactive: -0.165
22,CTAAAATA,inactive: 0.0383
23,AAATAATC,inactive: 0.101
24,ACGCGTTC,inactive: -0.0271
25,TGGGCAAA,inactive: -0.149

row,Sequence,PBM E-score
1,CGACTCCG,inactive: -0.233
2,CTCAGTGC,inactive: -0.159
3,CGGGTACG,inactive: -0.113
4,CTTAGCCA,inactive: -0.0617
5,CATAACTA,inactive: 0.155
6,GAGGAGAA,inactive: -0.0843
7,CAGGGAGC,inactive: -0.191
8,CACATTTC,inactive: 0.102
9,CAATACAA,inactive: 0.261
10,GGTGCCTA,inactive: -0.104
11,AAAAGATT,inactive: 0.0681
12,CAGAGCTA,inactive: -0.147
13,CGCACAAG,inactive: -0.00347
14,CTAGCGCA,inactive: -0.147
15,CTCGGGAA,inactive: -0.137
16,AGTAACAC,inactive: 0.24
17,ATGGGACC,inactive: -0.0677
18,CCAATTAG,inactive: 0.0397
19,CCCCCCAC,inactive: -0.406
20,CCAGACTA,≥ 0.0926
21,ACCAAGCG,inactive: -0.0944
22,GTCGGCCA,inactive: -0.0886
23,CCCTAAAA,inactive: -0.107
